Measurements as given in article PMC5629025 (2017).
Numbering of substitutions follows the chain as printed. These are yes or no findings as the source states them, for the method shown. Binding seen in cells or lysates may run through a third protein. Some binding calls cover weakened binding; strength is not graded here. For some assays here: Where a sequence is shown, tags or fusion partners need not be part of it.

By UniProt entry, the sequences of proteins in these tests, tags left out.
UniProt P0DMV8: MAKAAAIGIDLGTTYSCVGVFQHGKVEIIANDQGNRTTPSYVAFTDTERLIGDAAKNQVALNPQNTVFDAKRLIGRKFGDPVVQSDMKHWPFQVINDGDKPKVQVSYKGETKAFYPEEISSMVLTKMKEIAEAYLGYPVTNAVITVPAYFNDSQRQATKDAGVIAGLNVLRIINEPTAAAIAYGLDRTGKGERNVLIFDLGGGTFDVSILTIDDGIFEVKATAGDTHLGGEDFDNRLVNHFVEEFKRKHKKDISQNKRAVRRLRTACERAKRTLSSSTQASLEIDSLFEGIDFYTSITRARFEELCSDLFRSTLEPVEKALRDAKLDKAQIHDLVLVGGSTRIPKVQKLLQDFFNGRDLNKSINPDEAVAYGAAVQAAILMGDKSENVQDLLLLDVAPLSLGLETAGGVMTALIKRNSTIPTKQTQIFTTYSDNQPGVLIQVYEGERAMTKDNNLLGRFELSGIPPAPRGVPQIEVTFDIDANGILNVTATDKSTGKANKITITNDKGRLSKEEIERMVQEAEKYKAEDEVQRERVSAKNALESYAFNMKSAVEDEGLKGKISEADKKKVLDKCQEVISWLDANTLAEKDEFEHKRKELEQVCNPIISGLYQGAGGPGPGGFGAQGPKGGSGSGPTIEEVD
UniProt P10275: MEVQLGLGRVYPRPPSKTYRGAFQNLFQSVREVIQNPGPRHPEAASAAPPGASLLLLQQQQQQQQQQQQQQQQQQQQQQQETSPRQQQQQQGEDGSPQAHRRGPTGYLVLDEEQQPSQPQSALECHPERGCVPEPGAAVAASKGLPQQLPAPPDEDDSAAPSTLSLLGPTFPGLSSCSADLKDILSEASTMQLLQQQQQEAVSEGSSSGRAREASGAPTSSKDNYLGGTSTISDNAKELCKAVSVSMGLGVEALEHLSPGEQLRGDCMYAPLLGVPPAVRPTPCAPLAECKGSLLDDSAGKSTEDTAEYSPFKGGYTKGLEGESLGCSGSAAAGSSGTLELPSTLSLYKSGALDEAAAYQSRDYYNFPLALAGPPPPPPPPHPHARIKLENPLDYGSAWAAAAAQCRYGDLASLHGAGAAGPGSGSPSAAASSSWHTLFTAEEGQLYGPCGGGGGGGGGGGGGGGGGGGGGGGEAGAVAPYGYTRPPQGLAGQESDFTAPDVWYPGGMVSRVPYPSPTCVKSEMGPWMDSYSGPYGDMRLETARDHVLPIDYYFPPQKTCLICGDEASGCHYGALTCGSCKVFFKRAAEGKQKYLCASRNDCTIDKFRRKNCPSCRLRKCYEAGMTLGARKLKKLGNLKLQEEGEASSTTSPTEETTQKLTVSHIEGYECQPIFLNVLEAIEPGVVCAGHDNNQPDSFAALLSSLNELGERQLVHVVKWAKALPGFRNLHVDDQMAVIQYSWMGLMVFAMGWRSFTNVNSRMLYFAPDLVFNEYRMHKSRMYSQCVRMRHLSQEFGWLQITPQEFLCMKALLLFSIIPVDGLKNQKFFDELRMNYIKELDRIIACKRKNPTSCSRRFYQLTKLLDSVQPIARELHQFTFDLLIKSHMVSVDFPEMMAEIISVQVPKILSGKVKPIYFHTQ

Legend:
[1] = target: T1, FLAG-, HA-tagged BAG domain mutant Bag-1L (K231/232/279A) (human) (UniProt Q99933); assay: co-IP; LNCaP cells stably overexpressing FLAG-, HA-tagged Bag-1L WT or CMut; IP with anti-HA-tag antibody, blots for AR and Hsp70
T1 sequence: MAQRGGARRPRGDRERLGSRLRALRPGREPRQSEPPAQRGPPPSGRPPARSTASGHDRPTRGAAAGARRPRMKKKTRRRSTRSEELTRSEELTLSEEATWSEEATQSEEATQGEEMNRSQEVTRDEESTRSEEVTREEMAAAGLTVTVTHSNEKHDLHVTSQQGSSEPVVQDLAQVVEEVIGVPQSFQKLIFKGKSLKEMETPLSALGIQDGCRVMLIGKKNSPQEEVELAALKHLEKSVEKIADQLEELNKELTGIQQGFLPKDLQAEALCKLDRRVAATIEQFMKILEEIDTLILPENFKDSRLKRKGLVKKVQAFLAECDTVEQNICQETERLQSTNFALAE

[2] = target: T2, FLAG-, HA-tagged wild-type Bag-1L (human) (UniProt Q99933); assay: as above
T2 sequence: T1 sequence with A231K, A232K, A279K

[3] = target: T3, GST-Bag-1L fusion protein, wild type (human) (UniProt Q99933); assay: pull-down; GST-Bag-1L fusion proteins (wild type and BAG domain point mutants) with lysates from LNCaP cells; only the target purified
T3 sequence: T1 sequence with A231K, A232K, A279K

[4] = target: T4, GST-Bag-1L fusion protein, K231/232/279A triple mutant (human) (UniProt Q99933); assay: as above
T4 sequence: T1 sequence

[5] = target: T5, Bag-1L, endogenous in LNCaP cells (human (endogenous in LNCaP)) (UniProt Q99933); assay: condition: only cells treated with 5 μM Thio-2 for 16 hr; co-IP; endogenous proteins in LNCaP cells treated with 5 μM Thio-2 for 16 hr; IP with a Bag-1L-specific antibody, blot for AR
T5 sequence: T1 sequence with A231K, A232K, A279K

[6] = target: T5, Bag-1L, endogenous in LNCaP cells (human (endogenous in LNCaP)); assay: co-IP; endogenous proteins in LNCaP cells, without Thio-2; IP with a Bag-1L-specific antibody, blot for AR; IgG IP as negative control

Substance	binding [1]	binding [2]	binding [3]	binding [4]	binding [5]	binding [6]
Hsp70 (HSPA1), endogenous in LNCaP cells (from UniProt P0DMV8 1-641)	binds	binds	binds	binds		
androgen receptor, endogenous in LNCaP cells (from UniProt P10275 1-920)		binds	binds		no binding	binds
